Changes are numbered by the printed parent chain. Names may count otherwise. Results are given in words; binding and its absence hold for the method and conditions named. For some of these results: Binding seen in cells or lysates may run through a third protein. Some entries that bind do so weakly or less than the wild type. For some of these results: Tags and fused reporters may be left off the sequences shown.

By UniProt entry, the sequences of proteins in these tests, tags left out. Where a name states a change or a piece, a line headed by the entry shows the natural chain unless it says otherwise.
UniProt P06239: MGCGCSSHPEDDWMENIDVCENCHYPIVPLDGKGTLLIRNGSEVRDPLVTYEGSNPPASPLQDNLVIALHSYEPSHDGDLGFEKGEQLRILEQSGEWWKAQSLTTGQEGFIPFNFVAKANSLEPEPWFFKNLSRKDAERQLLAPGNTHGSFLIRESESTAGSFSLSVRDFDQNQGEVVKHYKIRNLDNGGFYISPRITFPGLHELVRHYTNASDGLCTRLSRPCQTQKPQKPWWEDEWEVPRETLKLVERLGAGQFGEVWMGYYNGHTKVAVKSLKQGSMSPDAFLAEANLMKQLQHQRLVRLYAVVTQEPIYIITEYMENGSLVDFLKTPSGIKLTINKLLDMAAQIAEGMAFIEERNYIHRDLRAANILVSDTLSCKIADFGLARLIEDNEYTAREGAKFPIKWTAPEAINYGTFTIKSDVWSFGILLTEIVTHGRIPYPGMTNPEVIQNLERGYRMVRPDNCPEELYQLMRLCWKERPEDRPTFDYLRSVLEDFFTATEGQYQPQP
UniProt Q9Y297: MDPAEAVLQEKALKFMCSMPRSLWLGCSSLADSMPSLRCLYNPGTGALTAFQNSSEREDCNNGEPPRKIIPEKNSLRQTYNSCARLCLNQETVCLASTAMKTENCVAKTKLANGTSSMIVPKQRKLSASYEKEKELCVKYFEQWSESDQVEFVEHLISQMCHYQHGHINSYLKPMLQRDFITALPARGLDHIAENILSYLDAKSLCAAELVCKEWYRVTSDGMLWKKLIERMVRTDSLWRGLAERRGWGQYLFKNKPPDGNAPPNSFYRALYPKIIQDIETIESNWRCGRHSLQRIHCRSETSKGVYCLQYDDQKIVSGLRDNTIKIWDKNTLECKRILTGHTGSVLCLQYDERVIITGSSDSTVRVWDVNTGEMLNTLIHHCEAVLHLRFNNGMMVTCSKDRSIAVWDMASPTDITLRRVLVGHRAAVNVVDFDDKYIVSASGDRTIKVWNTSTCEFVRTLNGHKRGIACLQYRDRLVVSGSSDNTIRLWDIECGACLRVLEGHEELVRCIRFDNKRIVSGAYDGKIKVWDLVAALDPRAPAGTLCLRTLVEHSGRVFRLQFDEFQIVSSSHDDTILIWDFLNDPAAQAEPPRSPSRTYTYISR
UniProt Q13309: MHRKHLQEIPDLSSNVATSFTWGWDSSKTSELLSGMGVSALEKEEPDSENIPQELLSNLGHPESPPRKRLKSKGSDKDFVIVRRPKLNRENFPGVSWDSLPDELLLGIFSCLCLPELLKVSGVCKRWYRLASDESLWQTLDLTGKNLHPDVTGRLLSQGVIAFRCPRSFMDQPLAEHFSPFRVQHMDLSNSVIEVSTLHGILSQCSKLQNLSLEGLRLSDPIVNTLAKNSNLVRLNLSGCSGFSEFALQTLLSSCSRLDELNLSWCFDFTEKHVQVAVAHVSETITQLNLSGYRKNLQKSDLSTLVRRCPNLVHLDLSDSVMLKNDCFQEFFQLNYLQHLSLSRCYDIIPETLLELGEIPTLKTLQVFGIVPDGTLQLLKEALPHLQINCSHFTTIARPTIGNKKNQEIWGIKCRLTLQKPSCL
UniProt Q969H0: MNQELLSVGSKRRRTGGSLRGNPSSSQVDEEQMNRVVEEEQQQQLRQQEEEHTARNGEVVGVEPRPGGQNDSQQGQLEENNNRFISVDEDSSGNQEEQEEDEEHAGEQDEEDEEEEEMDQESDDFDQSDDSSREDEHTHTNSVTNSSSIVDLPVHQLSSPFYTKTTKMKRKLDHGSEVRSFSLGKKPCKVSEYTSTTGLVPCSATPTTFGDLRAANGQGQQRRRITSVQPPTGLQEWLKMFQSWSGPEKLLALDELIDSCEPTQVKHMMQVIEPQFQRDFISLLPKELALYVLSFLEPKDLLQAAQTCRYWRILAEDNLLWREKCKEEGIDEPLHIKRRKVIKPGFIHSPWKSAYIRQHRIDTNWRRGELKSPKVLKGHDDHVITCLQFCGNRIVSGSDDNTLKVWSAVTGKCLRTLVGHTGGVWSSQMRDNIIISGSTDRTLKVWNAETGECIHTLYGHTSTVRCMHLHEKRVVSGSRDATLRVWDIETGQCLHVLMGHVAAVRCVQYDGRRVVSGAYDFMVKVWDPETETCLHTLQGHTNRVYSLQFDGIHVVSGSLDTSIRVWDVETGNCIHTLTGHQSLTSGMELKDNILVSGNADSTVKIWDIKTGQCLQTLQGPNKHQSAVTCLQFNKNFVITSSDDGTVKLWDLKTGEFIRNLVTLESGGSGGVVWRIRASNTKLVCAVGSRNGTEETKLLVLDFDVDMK
UniProt P06240: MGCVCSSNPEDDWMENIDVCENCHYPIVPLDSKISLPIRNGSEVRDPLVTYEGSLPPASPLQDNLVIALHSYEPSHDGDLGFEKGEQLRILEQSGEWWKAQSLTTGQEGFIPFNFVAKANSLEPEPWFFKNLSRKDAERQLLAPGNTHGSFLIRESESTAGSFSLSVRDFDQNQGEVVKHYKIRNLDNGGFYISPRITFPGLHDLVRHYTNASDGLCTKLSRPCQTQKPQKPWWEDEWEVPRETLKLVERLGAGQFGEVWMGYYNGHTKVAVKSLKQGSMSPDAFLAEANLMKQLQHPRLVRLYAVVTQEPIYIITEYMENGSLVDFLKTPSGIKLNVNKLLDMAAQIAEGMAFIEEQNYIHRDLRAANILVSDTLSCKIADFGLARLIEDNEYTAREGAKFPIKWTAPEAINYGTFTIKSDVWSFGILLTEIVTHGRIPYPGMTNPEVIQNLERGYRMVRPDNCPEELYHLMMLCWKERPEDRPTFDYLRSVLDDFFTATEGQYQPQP
UniProt Q8IWV8: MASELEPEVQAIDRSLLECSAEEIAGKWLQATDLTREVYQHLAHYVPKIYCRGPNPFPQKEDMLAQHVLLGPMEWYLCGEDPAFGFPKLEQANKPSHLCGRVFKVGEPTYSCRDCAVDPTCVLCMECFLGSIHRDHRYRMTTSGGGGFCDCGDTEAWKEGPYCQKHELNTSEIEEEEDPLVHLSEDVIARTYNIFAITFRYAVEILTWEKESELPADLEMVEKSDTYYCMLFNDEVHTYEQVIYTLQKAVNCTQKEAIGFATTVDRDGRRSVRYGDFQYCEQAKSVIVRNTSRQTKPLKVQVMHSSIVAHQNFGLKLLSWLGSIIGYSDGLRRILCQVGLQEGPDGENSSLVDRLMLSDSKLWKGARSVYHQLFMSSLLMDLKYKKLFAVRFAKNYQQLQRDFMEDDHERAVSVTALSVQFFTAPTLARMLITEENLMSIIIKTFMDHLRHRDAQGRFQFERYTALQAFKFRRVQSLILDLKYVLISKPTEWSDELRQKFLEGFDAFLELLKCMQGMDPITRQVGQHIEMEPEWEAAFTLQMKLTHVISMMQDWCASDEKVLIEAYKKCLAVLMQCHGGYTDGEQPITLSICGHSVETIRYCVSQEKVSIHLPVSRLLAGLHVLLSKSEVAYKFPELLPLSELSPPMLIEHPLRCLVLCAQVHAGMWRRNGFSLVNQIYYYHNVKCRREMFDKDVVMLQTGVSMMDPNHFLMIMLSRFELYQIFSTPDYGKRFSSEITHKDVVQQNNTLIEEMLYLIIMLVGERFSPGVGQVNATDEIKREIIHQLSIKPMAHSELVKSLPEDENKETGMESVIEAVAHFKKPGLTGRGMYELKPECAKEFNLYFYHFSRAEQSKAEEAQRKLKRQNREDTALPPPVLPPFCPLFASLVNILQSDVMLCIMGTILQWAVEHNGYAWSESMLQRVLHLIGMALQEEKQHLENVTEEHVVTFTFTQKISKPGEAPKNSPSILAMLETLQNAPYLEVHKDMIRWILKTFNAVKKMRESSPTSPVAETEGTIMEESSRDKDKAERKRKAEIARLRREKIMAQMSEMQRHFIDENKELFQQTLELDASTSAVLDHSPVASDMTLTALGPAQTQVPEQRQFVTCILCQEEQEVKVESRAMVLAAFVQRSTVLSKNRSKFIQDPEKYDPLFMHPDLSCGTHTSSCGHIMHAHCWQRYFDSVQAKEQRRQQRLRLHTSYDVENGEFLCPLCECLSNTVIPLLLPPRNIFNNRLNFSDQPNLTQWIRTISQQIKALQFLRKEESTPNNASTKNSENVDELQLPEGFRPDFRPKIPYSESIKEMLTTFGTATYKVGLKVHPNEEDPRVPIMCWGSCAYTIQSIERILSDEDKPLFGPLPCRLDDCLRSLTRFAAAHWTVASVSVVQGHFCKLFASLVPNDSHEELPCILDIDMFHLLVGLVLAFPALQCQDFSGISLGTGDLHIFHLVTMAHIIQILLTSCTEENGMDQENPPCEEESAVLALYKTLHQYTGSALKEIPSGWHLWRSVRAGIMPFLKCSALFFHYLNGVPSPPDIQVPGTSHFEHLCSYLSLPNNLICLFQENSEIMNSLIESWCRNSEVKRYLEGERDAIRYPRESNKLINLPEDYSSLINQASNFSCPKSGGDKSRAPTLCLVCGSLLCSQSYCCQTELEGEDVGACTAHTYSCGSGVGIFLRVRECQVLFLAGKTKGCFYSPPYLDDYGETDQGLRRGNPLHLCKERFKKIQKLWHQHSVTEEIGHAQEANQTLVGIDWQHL
UniProt Q6WKZ8: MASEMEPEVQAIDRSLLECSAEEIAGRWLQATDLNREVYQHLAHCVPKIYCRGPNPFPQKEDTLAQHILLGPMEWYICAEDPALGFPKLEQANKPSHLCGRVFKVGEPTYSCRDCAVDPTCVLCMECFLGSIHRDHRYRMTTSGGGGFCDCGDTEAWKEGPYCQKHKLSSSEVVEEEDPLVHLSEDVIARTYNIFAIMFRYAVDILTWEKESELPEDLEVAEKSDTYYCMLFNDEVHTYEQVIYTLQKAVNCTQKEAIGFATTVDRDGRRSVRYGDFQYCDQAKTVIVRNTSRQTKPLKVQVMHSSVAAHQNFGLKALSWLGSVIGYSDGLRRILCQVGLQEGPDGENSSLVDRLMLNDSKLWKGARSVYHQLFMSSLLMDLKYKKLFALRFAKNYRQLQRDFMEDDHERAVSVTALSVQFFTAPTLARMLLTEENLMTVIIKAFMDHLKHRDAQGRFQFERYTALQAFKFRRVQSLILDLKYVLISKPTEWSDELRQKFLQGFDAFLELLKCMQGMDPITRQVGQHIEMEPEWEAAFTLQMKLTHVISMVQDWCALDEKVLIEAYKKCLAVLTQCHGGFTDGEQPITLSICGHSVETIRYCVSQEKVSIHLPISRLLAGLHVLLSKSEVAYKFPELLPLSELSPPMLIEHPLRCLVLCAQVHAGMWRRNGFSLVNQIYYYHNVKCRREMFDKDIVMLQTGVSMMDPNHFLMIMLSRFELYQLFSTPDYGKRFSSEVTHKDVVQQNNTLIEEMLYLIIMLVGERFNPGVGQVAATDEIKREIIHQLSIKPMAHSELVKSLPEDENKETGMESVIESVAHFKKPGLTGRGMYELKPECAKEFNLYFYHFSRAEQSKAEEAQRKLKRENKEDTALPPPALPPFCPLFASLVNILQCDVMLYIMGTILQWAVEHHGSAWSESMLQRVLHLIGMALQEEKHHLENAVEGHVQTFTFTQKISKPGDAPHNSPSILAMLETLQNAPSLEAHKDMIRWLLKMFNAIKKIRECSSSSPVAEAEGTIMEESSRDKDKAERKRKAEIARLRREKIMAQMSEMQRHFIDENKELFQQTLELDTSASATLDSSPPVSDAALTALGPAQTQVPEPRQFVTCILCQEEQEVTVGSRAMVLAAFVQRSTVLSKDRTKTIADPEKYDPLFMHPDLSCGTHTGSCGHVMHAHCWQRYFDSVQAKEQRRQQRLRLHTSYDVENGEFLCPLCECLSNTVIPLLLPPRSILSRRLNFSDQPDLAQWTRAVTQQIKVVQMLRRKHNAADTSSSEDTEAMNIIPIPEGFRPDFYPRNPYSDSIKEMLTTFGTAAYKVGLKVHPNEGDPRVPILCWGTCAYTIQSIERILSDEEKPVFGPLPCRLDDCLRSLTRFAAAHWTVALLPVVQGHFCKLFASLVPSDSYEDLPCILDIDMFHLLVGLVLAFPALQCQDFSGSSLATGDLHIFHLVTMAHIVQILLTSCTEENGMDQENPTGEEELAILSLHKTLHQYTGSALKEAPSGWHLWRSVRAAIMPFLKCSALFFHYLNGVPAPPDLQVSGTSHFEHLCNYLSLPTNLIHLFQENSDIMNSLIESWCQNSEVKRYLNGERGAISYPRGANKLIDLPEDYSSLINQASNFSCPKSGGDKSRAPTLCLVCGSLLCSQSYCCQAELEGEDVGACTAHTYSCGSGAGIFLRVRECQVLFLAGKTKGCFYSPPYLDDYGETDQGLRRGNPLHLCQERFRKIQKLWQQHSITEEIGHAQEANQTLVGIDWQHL

Assay [1] concerns the target Lck overexpressed in Jurkat T cells (human) (UniProt P06239). The experiment in a line: co-IP; immunoprecipitation of lysates from Lck-overexpressing Jurkat T cells, anti-CD3 time course (Supplementary Fig. 6c).
In a further assay the target is T1, Myc-DUSP22 (C88S) (UniProt Q9NRW4).
T1 sequence: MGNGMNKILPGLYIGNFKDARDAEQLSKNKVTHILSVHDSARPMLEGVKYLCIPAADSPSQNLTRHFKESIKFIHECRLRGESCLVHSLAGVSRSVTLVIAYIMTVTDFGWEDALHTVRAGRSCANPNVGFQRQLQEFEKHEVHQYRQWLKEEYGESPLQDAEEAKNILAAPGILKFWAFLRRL
In words: co-IP; HEK293T cells co-transfected; RIPA lysates, 1 mg, anti-Flag or anti-Myc agarose beads, 4 °C 1-2 h, washed three times; immunoblot (reciprocal for UBR2 and DUSP22). On the technique in general: A western blot detects proteins with antibodies after separation by electrophoresis.

Assay [2] has as its target Myc-βTrCP (UniProt Q9Y297). The assay is described as above.
For assay [3], the target named is T2, Myc-DUSP22 (UniProt Q9NRW4).
T2 sequence: T1 sequence with S88C
The description is as above.

Assay [4] addresses Myc-βTrCP (UniProt Q9Y297). The experiment in a line: proximity ligation; in situ PLA in co-transfected HEK293T cells, anti-Flag and anti-Myc antibodies, signals < 40 nm; with or without MG132, GFP-DUSP22 or GFP-DUSP22 (C88S) co-expressed as told.
Another assay addresses Myc-SKP2 (UniProt Q13309). Described as above.
Assay [5] addresses T2, Myc-DUSP22. The description is as above.
A further assay concerns the target Myc-FBXW7 (UniProt Q969H0). The description is as above.
In another assay the target is T3, GST-DUSP22 (UniProt Q9NRW4).
T3 sequence: T1 sequence with S88C
The experiment in a line: pull-down; in vitro binding: purified Flag-UBR2 incubated with purified GST-DUSP22; precipitated with anti-Flag agarose beads or glutathione-sepharose at 4 °C for 2 h; immunoblot; both purified.

Assay [6] has as its target endogenous Lck (human peripheral blood T cells) (human (endogenous in peripheral blood T cells)) (UniProt P06239). In words: proximity ligation; in situ PLA for endogenous UBR2 and Lck in peripheral blood T cells of human SLE patients; cold methanol fixation, 0.1% Triton X-100.
Assay [7] shares this target. The experiment in a line: proximity ligation; in situ PLA for endogenous UBR2 and Lck in peripheral blood T cells of healthy controls; cold methanol fixation, 0.1% Triton X-100.
Assay [8] addresses T4, Myc-DUSP22 (in Jurkat T cells) (UniProt Q9NRW4).
T4 sequence: T1 sequence with S88C
In words: proximity ligation; in situ PLA in MG132-treated Jurkat T cells with Flag-UBR2 and Myc-DUSP22; signals < 40 nm; confocal microscopy.

Assay [9] addresses endogenous Lck (murine primary T cells) (mouse (endogenous in murine primary T cells)) (UniProt P06240). The experiment in a line: co-IP; endogenous proteins in lysates of murine primary T cells stimulated with anti-CD3 for 0, 5, 10 min; antibodies and protein A/G-agarose beads, 4 °C 2 h.
The next assay deals with Flag-UBR2 (UniProt Q8IWV8). In words: proximity ligation; in situ PLA in co-transfected HEK293T cells, anti-Flag and anti-Myc antibodies, signals < 40 nm; with or without MG132, GFP-DUSP22 or GFP-DUSP22 (C88S) co-expressed as told.

In the case of “UBR2 in the lysate of Lck-overexpressing Jurkat T cells (from UniProt Q8IWV8 1-1755)”, the binding entry in [1] is “binds”.

As to Flag-UBR2 (from UniProt Q8IWV8 1-1755), the binding entry with Myc-DUSP22 (C88S) was “binds”; in the assay with Myc-βTrCP [2] it was “binds”; with Myc-DUSP22 [3], “binds”; in the assay with Myc-βTrCP [4] it was “binds”; with Myc-SKP2, “no binding”; in the assay with Myc-DUSP22 [5] it was “binds”. Also, the binding result with Myc-FBXW7 is “no binding”; in the assay with GST-DUSP22 it was “binds”.

On to “endogenous UBR2 (human peripheral blood T cells) (from UniProt Q8IWV8 1-1755)”, for which the binding entry in [6] was “binds”; in assay [7], “no binding (condition: T cells from healthy controls)”.

On to “Flag-UBR2 (S1694A/Y1697F) (from UniProt Q8IWV8 1-1755)”, for which, in the assay with Myc-βTrCP [4], the binding result is “binds”.

As for “Flag-UBR2 (in Jurkat T cells) (from UniProt Q8IWV8 1-1755)”, the binding entry in assay [8] is on record as “binds”.

As for “endogenous UBR2 (murine primary T cells) (from UniProt Q6WKZ8 1-1755)”, the binding entry in assay [9] is on record as “binds”.

B1: DUSP22 in the lysate of Lck-overexpressing Jurkat T cells (protein, UniProt Q9NRW4 1-184)
chain: T1 sequence with S88C
Consider B1, for which the binding entry in [1] is on record as “binds”.

B2: GFP-DUSP22 (C88S) (protein, UniProt Q9NRW4 1-184)
chain: T1 sequence
For the molecule B2, in the assay with Flag-UBR2, the binding entry is given as “binds”.
